Test results as given in PubChem BioAssay AID624418 (National Center for Advancing Translational Sciences (NCATS), 2012).
The campaign covered roughly 410,000 compounds. About 530 (0.13%) were called active. The shares of active, inactive and inconclusive entries below differ from those in the screen. Calls come from the whole dose curve; as a rule, active = well fitted inhibition curve with a large enough effect; inconclusive = small, poorly fitted or top-dose-only effect, or another doubt; inactive = no such curve, though single readings can be large or run the other way. Potencies of inconclusive entries are doubtful fits and often do not repeat.

Experiment: qHTS of GLP-1 Receptor Inverse Agonists: Cytotox Screen
Conditions: HEK293 cAMP-luciferase reporter cells, luminescence, 24 h; series mostly up to 38.3 µM
Outline: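 Luminescence readout: signal drop marks cytotoxicity. Plated cells grew 12 h at 37 °C, 5% CO2, received 23 nL compound for 24 h, then got luciferase reagent, read after 12 min at RT.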
Potency is the fitted concentration of half-maximal effect.

Question: With `O=C(N/N=C/c1cccc(Oc2ccccc2)c1)c1cccc(O)c1` as the molecule, how does the Potency read?
Answer: inconclusive: 22.4 µM [inhibitor, single point]

Question: For `Cc1noc2nc(C(=O)O)nc(N3CCCCC3)c12`, which Potency is on record?
Answer: inactive

Question: Which Potency does the source give for `Nc1nc(SCC(=O)Nc2ccc(OCc3ccccc3)cc2)n[nH]1` here?
Answer: inactive

Question: Which Potency does the source give for `N#Cc1ccccc1CSc1ccc(-c2nc3ccccc3[nH]2)cn1` here?
Answer: inconclusive: 28.2 µM [inhibitor, single point]

Question: Which Potency does the source give for `Cc1cc2c3c(c1C)C1(C(=O)N3C(C)(C)CC2C)C(C#N)=C(N)Oc2cc(O)ccc21` (stereo unspecified) here?
Answer: inconclusive: 28.2 µM [inhibitor, single point]

Question: With `[N-]=[N+]=CC(=O)C(Cc1ccccc1)N1C(=O)c2ccccc2C1=O` (stereo unspecified) as the molecule, how does the Potency read?
Answer: inconclusive: 11.2 µM [inhibitor, single point]

Question: With `Cc1cc(C(=O)COC(=O)c2ccc(O)cc2O)c(C)n1-c1ccc(OC(F)F)cc1` as the molecule, how does the Potency read?
Answer: inconclusive: 28.2 µM [inhibitor, single point]

Question: For `Cc1ccc(C)c(-n2nnnc2SCC(=O)c2ccc3c(c2)NC(=O)CO3)c1`, which Potency is on record?
Answer: inconclusive: 22.4 µM [inhibitor, single point]

Question: For `CCC1CCCCN1CCCNC(=O)CNC(=O)c1nn(-c2ccc(OC)c(Cl)c2)c(=O)c2ccccc12` (stereo unspecified), which Potency is on record?
Answer: inconclusive: 11.2 µM [inhibitor, partial curve, poor fit]

Question: For `Cc1ccc(-n2nnnc2-c2cnc3ccc(Cl)cc3c2-c2ccccc2)cc1`, which Potency is on record?
Answer: inconclusive: 0.794 µM [inhibitor, full curve, poor fit]

Question: With `O=C(CCC(=O)N1CCOc2ccc(Cl)cc21)NCCCN1CCC(Cc2ccccc2)CC1` as the molecule, how does the Potency read?
Answer: inconclusive: 28.2 µM [inhibitor, single point]

Question: Which Potency does the source give for `CCCN(C)C[C@@H]1OCCCC[C@@H](C)Oc2ccc(NC(=O)c3ccccc3)cc2C(=O)N([C@H](C)CO)C[C@@H]1C` here?
Answer: inconclusive: 28.2 µM [inhibitor, single point]

Question: Which Potency does the source give for `CN1[C@@H](Cc2ccccc2)COc2cc(N3CCSCC3)ccc2S1(=O)=O` here?
Answer: inactive

Question: With `CNc1nc(NCc2ccccc2)c2ccccc2n1` as the molecule, how does the Potency read?
Answer: inconclusive: 14.1 µM [inhibitor, single point]

Question: Which Potency does the source give for `C[C@H](CO)N1C[C@H](C)[C@@H](CN(C)C(=O)Nc2ccc(C(F)(F)F)cc2)Oc2c(NC(=O)Nc3ccc(C(F)(F)F)cc3)cccc2C1=O` here?
Answer: inconclusive: 10 µM [inhibitor, partial curve, poor fit]

Question: Which Potency does the source give for `CC(C)(C)C(=O)NNC(=O)c1cc(C(C)(C)C)nn1Cc1ccccc1` here?
Answer: inactive

Question: For `CC(C)CC(=O)NC(=S)Nc1ccc(Cl)cn1`, which Potency is on record?
Answer: inconclusive: 15.8 µM [inhibitor, single point]

Question: Which Potency does the source give for `COC(=O)c1ccc(-n2c(C)cc(-c3csc(NC(=O)c4ccc(S(=O)(=O)N(C)C)cc4)n3)c2C)cc1` here?
Answer: inactive

Question: For `Cc1ccc2c(c1)c1c(n2CC(O)CNC2CCCC2)CCCC1` (stereo unspecified), which Potency is on record?
Answer: inconclusive: 28.2 µM [inhibitor, single point]

Question: With `Oc1ccc(NC(=S)N=Nc2c(O)[nH]c3ccc(Br)cc23)cc1` as the molecule, how does the Potency read?
Answer: inconclusive: 12.6 µM [inhibitor, partial curve, poor fit]

Question: With `NC(=O)C1=C(c2ccccc2)c2ccccc2C1=O` as the molecule, how does the Potency read?
Answer: inconclusive: 10 µM [inhibitor, single point]

Question: With `CCCCn1nnc(NC(=S)NC(=O)c2cccs2)n1` as the molecule, how does the Potency read?
Answer: inconclusive: 7.94 µM [inhibitor, partial curve, poor fit]

Question: For `O=C(CSC1=NCCN1)Nc1cccc([N+](=O)[O-])c1`, which Potency is on record?
Answer: inconclusive: 11.2 µM [inhibitor, single point]

Question: With `O=C(Nc1nc2ccccc2n1Cc1ccccc1)c1ccco1` as the molecule, how does the Potency read?
Answer: inconclusive: 28.2 µM [inhibitor, single point]

Question: Which Potency does the source give for `CCOC(=O)c1c(CN(C)C)n(C)c2c(O)c(N=NC(N)=O)c3ccc(Br)cc3c12` here?
Answer: inconclusive: 11.2 µM [inhibitor, single point]

Question: For `CC(=O)NC(c1ccc2ccccc2c1)c1ccc2cccnc2c1O` (stereo unspecified), which Potency is on record?
Answer: inconclusive: 0.501 µM [inhibitor, full curve, poor fit]

Question: With `COc1ccc(C(CCNCc2ccc(OC(C)C)cc2)c2ccccc2OC)cc1` (stereo unspecified) as the molecule, how does the Potency read?
Answer: inconclusive: 31.6 µM [inhibitor, partial curve, poor fit]

Question: For `COc1ccc(-c2nn(-c3ccccc3)cc2/C=N/N=C(N)N)cc1OC`, which Potency is on record?
Answer: inconclusive: 28.2 µM [inhibitor, single point]

Question: For `Oc1c(CN2CCCCC2)ccc2cccnc12`, which Potency is on record?
Answer: inconclusive: 0.562 µM [inhibitor, full curve, poor fit]

Question: Which Potency does the source give for `COC(=O)c1sc(-c2ccccc2)cc1NC(=O)Nc1ccc(F)cc1` here?
Answer: inactive

Question: Which Potency does the source give for `O=C(COc1ccc(/C=N/NC(=O)c2cc3ccccc3o2)cc1Br)Nc1ccccc1` here?
Answer: inconclusive: 28.2 µM [inhibitor, single point]

Question: Which Potency does the source give for `O=C(/C=C/c1ccccc1)Nc1ccc(Cl)cn1` here?
Answer: inconclusive: 28.2 µM [inhibitor, single point]

Question: For `CCNC(=S)Nc1cc(-c2ccc(Cl)cc2)[nH]n1`, which Potency is on record?
Answer: inconclusive: 11.2 µM [inhibitor, partial curve]

Question: For `O=c1c2ccccc2n(Cc2c(F)cccc2Cl)c(=O)n1CCc1ccccc1`, which Potency is on record?
Answer: inactive

Question: With `COc1cccc(/C=C2\SC(=S)N(CCCC(=O)N3CCCC3)C2=O)c1` as the molecule, how does the Potency read?
Answer: inconclusive: 10 µM [inhibitor, partial curve, poor fit]

Question: For `Cn1c(C(=O)OCC(=O)NCCc2ccccc2)cc2sccc21`, which Potency is on record?
Answer: inconclusive: 5.01 µM [inhibitor, partial curve]

Question: Which Potency does the source give for `O=C(CCCCn1c(=O)c2ccccc2n(Cc2cccc(F)c2)c1=O)NCc1ccc2c(c1)OCO2` here?
Answer: inactive

Question: Which Potency does the source give for `CCCn1c(N)c(N(CCOC)C(=O)CSCC(=O)Nc2cccc(C)c2)c(=O)[nH]c1=O` here?
Answer: inactive

Question: Which Potency does the source give for `CCN1CCN(Cc2ccc(NC(=O)c3cc(NC(=O)c4ccno4)cc(OC)c3)cc2C(F)(F)F)CC1` here?
Answer: inconclusive: 0.891 µM [inhibitor, partial curve, poor fit]

Question: With `COc1ccc(NS(=O)(=O)c2ccc(-c3n[nH]c(=S)n3Cc3ccccc3)cc2)cc1` as the molecule, how does the Potency read?
Answer: inactive

Question: Which Potency does the source give for `CCCC(=O)NC(=S)Nc1cccc(Cl)c1N1CCCCC1` here?
Answer: inconclusive: 31.6 µM [inhibitor, single point]
